Results on eight molecules are retold here after PMC10520887.

Chains of the proteins cited; added tags and fusions are not shown. Lines headed by an entry give the natural chain unless they say otherwise; changes in a name come on top.
UniProt B8XX90: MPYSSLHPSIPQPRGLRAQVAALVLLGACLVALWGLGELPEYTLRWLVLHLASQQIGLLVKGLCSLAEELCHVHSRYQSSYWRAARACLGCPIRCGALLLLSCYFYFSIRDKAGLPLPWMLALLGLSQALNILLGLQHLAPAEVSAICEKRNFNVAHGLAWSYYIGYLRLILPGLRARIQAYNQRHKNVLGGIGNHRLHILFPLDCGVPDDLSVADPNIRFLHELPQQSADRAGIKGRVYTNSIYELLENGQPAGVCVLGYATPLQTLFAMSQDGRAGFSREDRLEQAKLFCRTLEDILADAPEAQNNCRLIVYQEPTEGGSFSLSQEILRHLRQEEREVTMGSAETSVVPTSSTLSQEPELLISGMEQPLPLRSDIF

Test [1] deals with T1, pIKKε-Myc (porcine IKKε) (porcine) (UniProt M9MMN5).
T1 sequence: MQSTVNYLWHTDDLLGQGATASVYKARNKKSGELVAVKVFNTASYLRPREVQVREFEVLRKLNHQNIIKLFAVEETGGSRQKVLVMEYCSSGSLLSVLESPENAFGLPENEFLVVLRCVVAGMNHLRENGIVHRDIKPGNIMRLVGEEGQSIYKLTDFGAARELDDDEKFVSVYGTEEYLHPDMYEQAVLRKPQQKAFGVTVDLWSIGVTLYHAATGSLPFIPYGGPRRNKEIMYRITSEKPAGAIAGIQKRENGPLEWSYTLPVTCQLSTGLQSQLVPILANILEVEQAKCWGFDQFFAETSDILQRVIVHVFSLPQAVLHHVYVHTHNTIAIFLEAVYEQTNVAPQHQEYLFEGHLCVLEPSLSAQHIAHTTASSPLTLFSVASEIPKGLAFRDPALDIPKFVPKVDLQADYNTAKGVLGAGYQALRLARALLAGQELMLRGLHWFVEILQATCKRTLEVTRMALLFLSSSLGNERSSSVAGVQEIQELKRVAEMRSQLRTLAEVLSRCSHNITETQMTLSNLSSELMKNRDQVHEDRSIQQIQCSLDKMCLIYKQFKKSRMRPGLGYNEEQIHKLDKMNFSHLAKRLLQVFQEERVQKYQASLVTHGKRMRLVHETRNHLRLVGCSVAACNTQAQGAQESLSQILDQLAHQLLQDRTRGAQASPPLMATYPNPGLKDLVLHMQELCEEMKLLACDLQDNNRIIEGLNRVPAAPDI
Kind of test: co-IP; HEK293T cotransfected with the two tagged proteins for 48 h (legends; the methods say 24 h); lysis buffer 50 mM Tris pH 7.2, 150 mM NaCl, 1% sodium deoxycholate, 1% Triton X-100; antibody overnight at 4 °C, protein A/G beads 2 h; co-IP and reverse co-IP; Western blot. A general note: A western blot detects proteins with antibodies after separation by electrophoresis.

For test [2], the target named is T2, mCherry-pIKKε (porcine IKKε) (porcine) (UniProt M9MMN5).
T2 sequence: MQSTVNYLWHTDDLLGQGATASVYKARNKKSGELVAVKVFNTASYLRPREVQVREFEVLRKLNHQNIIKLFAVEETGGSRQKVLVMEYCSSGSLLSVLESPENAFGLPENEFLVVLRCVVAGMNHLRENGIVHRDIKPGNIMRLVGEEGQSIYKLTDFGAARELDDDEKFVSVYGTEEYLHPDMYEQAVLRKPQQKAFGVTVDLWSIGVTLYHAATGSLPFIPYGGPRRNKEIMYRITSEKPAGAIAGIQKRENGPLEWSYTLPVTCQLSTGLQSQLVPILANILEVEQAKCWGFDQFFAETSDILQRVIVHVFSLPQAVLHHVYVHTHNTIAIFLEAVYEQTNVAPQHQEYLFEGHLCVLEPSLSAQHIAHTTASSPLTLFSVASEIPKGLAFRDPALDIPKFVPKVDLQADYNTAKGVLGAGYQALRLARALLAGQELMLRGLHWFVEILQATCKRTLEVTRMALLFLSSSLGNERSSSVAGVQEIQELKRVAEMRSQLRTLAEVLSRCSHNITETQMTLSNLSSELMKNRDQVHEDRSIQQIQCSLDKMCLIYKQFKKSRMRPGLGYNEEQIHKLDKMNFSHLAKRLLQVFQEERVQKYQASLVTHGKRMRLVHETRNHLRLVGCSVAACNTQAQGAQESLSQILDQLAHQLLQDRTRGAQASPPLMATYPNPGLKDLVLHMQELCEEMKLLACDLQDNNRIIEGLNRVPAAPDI
The test is described as above.

The target of test [3] is T3, GFP-pIRF3 (porcine IRF3) (porcine) (UniProt Q764M6).
T3 sequence: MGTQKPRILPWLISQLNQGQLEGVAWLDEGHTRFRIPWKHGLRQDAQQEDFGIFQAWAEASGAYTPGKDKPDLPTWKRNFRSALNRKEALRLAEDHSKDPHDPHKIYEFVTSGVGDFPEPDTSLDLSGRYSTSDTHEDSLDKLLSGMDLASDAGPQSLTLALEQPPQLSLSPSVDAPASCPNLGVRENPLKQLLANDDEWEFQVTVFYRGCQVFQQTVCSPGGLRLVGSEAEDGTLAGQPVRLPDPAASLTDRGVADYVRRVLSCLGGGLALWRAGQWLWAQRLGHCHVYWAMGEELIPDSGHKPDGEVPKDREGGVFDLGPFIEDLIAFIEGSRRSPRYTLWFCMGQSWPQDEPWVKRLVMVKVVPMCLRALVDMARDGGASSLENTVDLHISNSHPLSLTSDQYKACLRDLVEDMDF
Described as above.

The target of test [4] is T4, pIKKε-GFP (porcine IKKε) (porcine) (UniProt M9MMN5).
T4 sequence: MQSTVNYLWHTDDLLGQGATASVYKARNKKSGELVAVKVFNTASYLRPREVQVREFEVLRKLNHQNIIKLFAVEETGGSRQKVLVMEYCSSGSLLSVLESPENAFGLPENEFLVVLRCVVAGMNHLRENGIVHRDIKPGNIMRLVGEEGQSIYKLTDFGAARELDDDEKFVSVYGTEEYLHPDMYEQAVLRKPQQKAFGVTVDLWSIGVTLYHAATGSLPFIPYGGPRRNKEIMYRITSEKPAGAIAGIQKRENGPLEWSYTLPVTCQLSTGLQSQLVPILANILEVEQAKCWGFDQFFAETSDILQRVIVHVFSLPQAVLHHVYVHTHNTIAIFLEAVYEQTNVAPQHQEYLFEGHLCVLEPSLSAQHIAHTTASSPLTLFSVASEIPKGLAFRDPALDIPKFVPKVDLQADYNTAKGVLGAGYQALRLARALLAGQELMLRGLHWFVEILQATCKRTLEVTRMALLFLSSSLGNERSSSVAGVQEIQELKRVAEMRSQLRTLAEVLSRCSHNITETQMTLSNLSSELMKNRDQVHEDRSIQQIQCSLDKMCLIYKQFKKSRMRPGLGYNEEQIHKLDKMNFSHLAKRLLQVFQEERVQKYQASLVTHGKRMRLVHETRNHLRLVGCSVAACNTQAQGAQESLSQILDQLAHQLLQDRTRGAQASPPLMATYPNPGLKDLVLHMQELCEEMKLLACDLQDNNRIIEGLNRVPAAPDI
The test is described as above.

Test [5] has as its target T2, mCherry-pIKKε (porcine IKKε) (porcine). In words: co-IP; 293T cotransfected with 0.5 μg GFP-STING, 0.5 μg TBK1-HA and increasing pIKKε (0.5, 1, 1.5 μg), IP with anti-HA; or 0.5 μg GFP-STING, 0.5 μg mCherry-IKKε and increasing pTBK1 (0.5, 1, 1.5 μg), IP with anti-mCherry; 48 h; Western blot.
Test [6] deals with mCherry-pSTING (porcine STING) (porcine) (UniProt B8XX90). Kind of test: co-IP; HEK293T cotransfected with the two tagged proteins for 48 h (legends; the methods say 24 h); lysis buffer 50 mM Tris pH 7.2, 150 mM NaCl, 1% sodium deoxycholate, 1% Triton X-100; antibody overnight at 4 °C, protein A/G beads 2 h; co-IP and reverse co-IP; Western blot.
The target in test [7] is endogenous pSTING (porcine STING) (porcine (endogenous in 3D4/21)) (UniProt B8XX90). In words: co-IP; endogenous proteins of 3D4/21 cells stimulated with or without 2′3′-cGAMP (2 μg/ml); IP with anti-STING antibody (pIKKε–pSTING) or TBK1 antibody (pSTING–pTBK1).
The target of test [8] is pSTING-HA (porcine STING) (porcine) (UniProt B8XX90). In words: co-IP; HEK293T cotransfected with the two tagged proteins for 48 h (legends; the methods say 24 h); lysis buffer 50 mM Tris pH 7.2, 150 mM NaCl, 1% sodium deoxycholate, 1% Triton X-100; antibody overnight at 4 °C, protein A/G beads 2 h; co-IP and reverse co-IP; Western blot.

No constants are given. Whether binding was seen depends on the method and setting. In cells and extracts the contact can be indirect. Some entries that bind do so weakly or less than the wild type. For part of these data: Sequences can lack the tags named with a protein.

Turning to “pSTING-HA (porcine STING) (from UniProt B8XX90 1-378)”, in test [1], the binding entry is recorded as “binds”. “GFP-pSTING (191–338 amino acids) (from UniProt B8XX90 191-338) (domain or fragment)”: the binding entry in test [2] was “no binding”. Consider “mCherry-pSTING (porcine STING) (from UniProt B8XX90 1-378)”, for which the binding entry in test [3] and in test [4] was “binds” throughout. With “GFP-pSTING L373A (from UniProt B8XX90 1-378)”, the binding result in test [2] is on record as “no binding”.

Regarding “GFP-pSTING (porcine STING) (from UniProt B8XX90 1-378)”, the binding result in test [5] is given as “binds”.

B1: pIKKε-GFP (porcine IKKε) (protein, UniProt M9MMN5 1-718)
chain: MQSTVNYLWHTDDLLGQGATASVYKARNKKSGELVAVKVFNTASYLRPREVQVREFEVLRKLNHQNIIKLFAVEETGGSRQKVLVMEYCSSGSLLSVLESPENAFGLPENEFLVVLRCVVAGMNHLRENGIVHRDIKPGNIMRLVGEEGQSIYKLTDFGAARELDDDEKFVSVYGTEEYLHPDMYEQAVLRKPQQKAFGVTVDLWSIGVTLYHAATGSLPFIPYGGPRRNKEIMYRITSEKPAGAIAGIQKRENGPLEWSYTLPVTCQLSTGLQSQLVPILANILEVEQAKCWGFDQFFAETSDILQRVIVHVFSLPQAVLHHVYVHTHNTIAIFLEAVYEQTNVAPQHQEYLFEGHLCVLEPSLSAQHIAHTTASSPLTLFSVASEIPKGLAFRDPALDIPKFVPKVDLQADYNTAKGVLGAGYQALRLARALLAGQELMLRGLHWFVEILQATCKRTLEVTRMALLFLSSSLGNERSSSVAGVQEIQELKRVAEMRSQLRTLAEVLSRCSHNITETQMTLSNLSSELMKNRDQVHEDRSIQQIQCSLDKMCLIYKQFKKSRMRPGLGYNEEQIHKLDKMNFSHLAKRLLQVFQEERVQKYQASLVTHGKRMRLVHETRNHLRLVGCSVAACNTQAQGAQESLSQILDQLAHQLLQDRTRGAQASPPLMATYPNPGLKDLVLHMQELCEEMKLLACDLQDNNRIIEGLNRVPAAPDI
In the case of B1, in test [6], the binding result was “binds”.

B2: endogenous pIKKε (porcine IKKε) (protein, UniProt M9MMN5 1-718)
chain: MQSTVNYLWHTDDLLGQGATASVYKARNKKSGELVAVKVFNTASYLRPREVQVREFEVLRKLNHQNIIKLFAVEETGGSRQKVLVMEYCSSGSLLSVLESPENAFGLPENEFLVVLRCVVAGMNHLRENGIVHRDIKPGNIMRLVGEEGQSIYKLTDFGAARELDDDEKFVSVYGTEEYLHPDMYEQAVLRKPQQKAFGVTVDLWSIGVTLYHAATGSLPFIPYGGPRRNKEIMYRITSEKPAGAIAGIQKRENGPLEWSYTLPVTCQLSTGLQSQLVPILANILEVEQAKCWGFDQFFAETSDILQRVIVHVFSLPQAVLHHVYVHTHNTIAIFLEAVYEQTNVAPQHQEYLFEGHLCVLEPSLSAQHIAHTTASSPLTLFSVASEIPKGLAFRDPALDIPKFVPKVDLQADYNTAKGVLGAGYQALRLARALLAGQELMLRGLHWFVEILQATCKRTLEVTRMALLFLSSSLGNERSSSVAGVQEIQELKRVAEMRSQLRTLAEVLSRCSHNITETQMTLSNLSSELMKNRDQVHEDRSIQQIQCSLDKMCLIYKQFKKSRMRPGLGYNEEQIHKLDKMNFSHLAKRLLQVFQEERVQKYQASLVTHGKRMRLVHETRNHLRLVGCSVAACNTQAQGAQESLSQILDQLAHQLLQDRTRGAQASPPLMATYPNPGLKDLVLHMQELCEEMKLLACDLQDNNRIIEGLNRVPAAPDI
Consider B2, for which the binding entry in test [7] is “binds”.

B3: pIKKε-Myc (porcine IKKε) (protein, UniProt M9MMN5 1-718)
chain: MQSTVNYLWHTDDLLGQGATASVYKARNKKSGELVAVKVFNTASYLRPREVQVREFEVLRKLNHQNIIKLFAVEETGGSRQKVLVMEYCSSGSLLSVLESPENAFGLPENEFLVVLRCVVAGMNHLRENGIVHRDIKPGNIMRLVGEEGQSIYKLTDFGAARELDDDEKFVSVYGTEEYLHPDMYEQAVLRKPQQKAFGVTVDLWSIGVTLYHAATGSLPFIPYGGPRRNKEIMYRITSEKPAGAIAGIQKRENGPLEWSYTLPVTCQLSTGLQSQLVPILANILEVEQAKCWGFDQFFAETSDILQRVIVHVFSLPQAVLHHVYVHTHNTIAIFLEAVYEQTNVAPQHQEYLFEGHLCVLEPSLSAQHIAHTTASSPLTLFSVASEIPKGLAFRDPALDIPKFVPKVDLQADYNTAKGVLGAGYQALRLARALLAGQELMLRGLHWFVEILQATCKRTLEVTRMALLFLSSSLGNERSSSVAGVQEIQELKRVAEMRSQLRTLAEVLSRCSHNITETQMTLSNLSSELMKNRDQVHEDRSIQQIQCSLDKMCLIYKQFKKSRMRPGLGYNEEQIHKLDKMNFSHLAKRLLQVFQEERVQKYQASLVTHGKRMRLVHETRNHLRLVGCSVAACNTQAQGAQESLSQILDQLAHQLLQDRTRGAQASPPLMATYPNPGLKDLVLHMQELCEEMKLLACDLQDNNRIIEGLNRVPAAPDI
On to B3, for which the binding entry in test [8] is given as “binds”.
